# Test results as given in the supplement of paper PMC8728848.
# The other results are listed elsewhere or left out.
# Legend:
# Test in all cases: glycan array binding signal (z-score within array); higher = stronger binding
# Settings in all cases: glycan notation: IUPAC condensed, linker removed
# [1] = target: Fuc(a1-2)Gal
# Summary of the method: (§1)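 The binding signal is a Z-score computed within each array. Data were drawn from 3228 arrays in the Consortium for Functional Glycomics database, restricted to those with a known protein sequence. Scores were averaged over arrays of the same protein sequence at different concentrations or buffers, and over linkers, and negative values can be taken as non-binding.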
# [2] = target: Fuc(a1-2)Gal(b1-3)GalNAc
# Summary of the method: as §1
# [3] = target: Fuc(a1-2)Gal(b1-3)GalNAc(a1-3)[Fuc(a1-2)]Gal(b1-4)Glc
# Summary of the method: as §1
# [4] = target: Fuc(a1-2)Gal(b1-3)GalNAc(a1-3)[Fuc(a1-2)]Gal(b1-4)GlcNAc
# Summary of the method: as §1
# [5] = target: Fuc(a1-2)Gal(b1-3)GalNAc(b1-3)Gal
# Summary of the method: as §1
# [6] = target: Fuc(a1-2)Gal(b1-3)GalNAc(b1-3)Gal(a1-4)Gal(b1-4)Glc
# Summary of the method: as §1
# [7] = target: Fuc(a1-2)Gal(b1-3)GalNAc(b1-4)[Neu5Ac(a2-3)]Gal(b1-4)Glc
# Summary of the method: as §1
# [8] = target: Fuc(a1-2)Gal(b1-3)GlcNAc
# Summary of the method: as §1
# [9] = target: Fuc(a1-2)Gal(b1-3)GlcNAc(b1-2)Man(a1-3)[Fuc(a1-2)Gal(b1-3)GlcNAc(b1-2)Man(a1-6)]Man(b1-4)GlcNAc(b1-4)GlcNAc
# Summary of the method: as §1
# [10] = target: Fuc(a1-2)Gal(b1-3)GlcNAc(b1-2)Man(a1-3)[Fuc(a1-2)Gal(b1-3)GlcNAc(b1-2)Man(a1-6)]Man(b1-4)GlcNAc(b1-4)[Fuc(a1-6)]GlcNAc
# Summary of the method: as §1
# [11] = target: Fuc(a1-2)Gal(b1-3)GlcNAc(b1-3)Gal(b1-4)Glc
# Summary of the method: as §1
# [12] = target: Fuc(a1-2)Gal(b1-3)GlcNAc(b1-3)GalNAc
# Summary of the method: as §1
# [13] = target: Fuc(a1-2)Gal(b1-3)GlcNAc(b1-3)[Fuc(a1-2)Gal(b1-3)GlcNAc(b1-6)]GalNAc
# Summary of the method: as §1
# [14] = target: Fuc(a1-2)Gal(b1-3)GlcNAc(b1-3)[Gal(b1-4)GlcNAc(b1-6)]Gal(b1-4)Glc
# Summary of the method: as §1
# [15] = target: Fuc(a1-2)Gal(b1-3)GlcNAc(b1-3)[Neu5Ac(a2-6)Gal(b1-4)GlcNAc(b1-6)]Gal(b1-4)Glc
# Summary of the method: as §1
# [16] = target: Fuc(a1-2)Gal(b1-3)GlcNAc6S
# Summary of the method: as §1
# [17] = target: Fuc(a1-2)Gal(b1-3)[Fuc(a1-4)]GlcNAc
# Summary of the method: as §1
# [18] = target: Fuc(a1-2)Gal(b1-3)[Fuc(a1-4)]GlcNAc(b1-2)Man(a1-3)[Fuc(a1-2)Gal(b1-3)[Fuc(a1-4)]GlcNAc(b1-2)Man(a1-3)]Man(b1-4)GlcNAc(b1-4)GlcNAc
# Summary of the method: as §1
# [19] = target: Fuc(a1-2)Gal(b1-3)[Fuc(a1-4)]GlcNAc(b1-2)Man(a1-3)[Fuc(a1-2)Gal(b1-3)[Fuc(a1-4)]GlcNAc(b1-2)Man(a1-6)]Man(b1-4)GlcNAc(b1-4)[Fuc(a1-6)]GlcNAc(b1-4)[Fuc(a1-6)]GlcNAc
# Summary of the method: as §1
# [20] = target: Fuc(a1-2)Gal(b1-3)[Fuc(a1-4)]GlcNAc(b1-3)[Fuc(a1-3)[Gal(b1-4)]GlcNAc(b1-6)]Gal(b1-4)Glc
# Summary of the method: as §1
# [21] = target: Fuc(a1-2)Gal(b1-3)[Fuc(a1-4)]GlcNAc(b1-3)[Gal(b1-4)GlcNAc(b1-6)]Gal(b1-4)Glc
# Summary of the method: as §1
# [22] = target: Fuc(a1-2)Gal(b1-4)Fuc(a1-3)]GlcNAc(b1-2)Man(a1-3)[Fuc(a1-2)Gal(b1-4)[Fuc(a1-3)]GlcNAc(b1-2)Man(a1-6)]Man(b1-4)GlcNAc(b1-4)GlcNAc
# Summary of the method: as §1
# [23] = target: Fuc(a1-2)Gal(b1-4)Glc
# Summary of the method: as §1
# [24] = target: Fuc(a1-2)Gal(b1-4)Glc6S
# Summary of the method: as §1
# [25] = target: Fuc(a1-2)Gal(b1-4)GlcNAc
# Summary of the method: as §1
# [26] = target: Fuc(a1-2)Gal(b1-4)GlcNAc(b1-2)Man
# Summary of the method: as §1
# [27] = target: Fuc(a1-2)Gal(b1-4)GlcNAc(b1-2)Man(a1-3)[Fuc(a1-2)Gal(b1-4)GlcNAc(b1-2)Man(a1-6)]Man(b1-4)GlcNAc(b1-4)GlcNAc
# Summary of the method: as §1
# [28] = target: Fuc(a1-2)Gal(b1-4)GlcNAc(b1-2)Man(a1-3)[Fuc(a1-2)Gal(b1-4)GlcNAc(b1-2)Man(a1-6)]Man(b1-4)GlcNAc(b1-4)[Fuc(a1-6)]GlcNAc
# Summary of the method: as §1
# [29] = target: Fuc(a1-2)Gal(b1-4)GlcNAc(b1-2)[Fuc(a1-2)Gal(b1-4)GlcNAc(b1-4)]Man(a1-3)[Fuc(a1-2)Gal(b1-4)GlcNAc(b1-2)Man(a1-6)]Man(b1-4)GlcNAc(b1-4)GlcNAc
# Summary of the method: as §1
# [30] = target: Fuc(a1-2)Gal(b1-4)GlcNAc(b1-3)Gal(b1-4)GlcNAc
# Summary of the method: as §1
binder,measurement,setting,value
"SGC, Q9M345 (protein) QNLNFTYNGFHPPLTDISLQGLATVTPNGLLKLTNTSVQKTGHAFCTERIRFKDSQNGNVSSFSTTFVFAIHSQIPTLSGHGIAFVVAPTLGLPFALPSQYIGLFNISNNGNDTNHIFAVEFDTIQSSEFGDPNDNHVGIDLNGLRSANYSTAGYRDDHDKFQNLSLISRKRIQVWIDYDNRSHRIDVTVAPFDSDKPRKPLVSYVRDLSSILLEDMYVGFSSATGSVLSEHFLVGWSFRLNGEAPMLSLSKLPKLPRFEPRRIS",glycan array binding signal (z-score),[1],-0.354
same,glycan array binding signal (z-score),[2],-0.316
same,glycan array binding signal (z-score),[3],-0.382
same,glycan array binding signal (z-score),[4],-0.366
same,glycan array binding signal (z-score),[5],-0.331
same,glycan array binding signal (z-score),[6],-0.413
same,glycan array binding signal (z-score),[7],-0.353
same,glycan array binding signal (z-score),[8],-0.326
same,glycan array binding signal (z-score),[9],3.64
same,glycan array binding signal (z-score),[10],-0.306
same,glycan array binding signal (z-score),[11],-0.394
same,glycan array binding signal (z-score),[12],-0.34
same,glycan array binding signal (z-score),[13],3.16
same,glycan array binding signal (z-score),[14],-0.27
same,glycan array binding signal (z-score),[15],-0.432
same,glycan array binding signal (z-score),[16],-0.376
same,glycan array binding signal (z-score),[17],-0.34
same,glycan array binding signal (z-score),[18],-0.093
same,glycan array binding signal (z-score),[19],-0.292
same,glycan array binding signal (z-score),[20],-0.38
same,glycan array binding signal (z-score),[21],-0.345
same,glycan array binding signal (z-score),[22],1.05
same,glycan array binding signal (z-score),[23],-0.336
same,glycan array binding signal (z-score),[24],-0.356
same,glycan array binding signal (z-score),[25],-0.381
same,glycan array binding signal (z-score),[26],-0.348
same,glycan array binding signal (z-score),[27],0.695
same,glycan array binding signal (z-score),[28],-0.364
same,glycan array binding signal (z-score),[29],-0.321
same,glycan array binding signal (z-score),[30],-0.346
